Reference: the CheMixHub viscosity set
± gives the uncertainty stated by the source. For part of its entries the source gives two or more results. They are shown here; other results are not. There may be further records. Values that stand side by side are repeats (runs, samples, wells, individuals or studies). Brackets tell where a record comes from. Letters count within one entry.

SMILES	viscosity (298.15 K, 101 kPa)	viscosity (303.15 K, 101 kPa)	viscosity (303.15 K, 101.33 kPa)	viscosity (308.15 K, 101.33 kPa)	other results
OCC(O)CO	909.8 ± 340 mPa·s [study A] and 905.6 ± 54 mPa·s [study B] and 706 ± 80 mPa·s [study C] and 938 ± 96 mPa·s [study D]	589 ± 210 mPa·s [study A] and 612 ± 27 mPa·s [study B] and 520.6 ± 28 mPa·s [study C] and 492.1 ± 25 mPa·s [study D]			
COC(=O)CC(C)=O			1.421 ± 0.034 mPa·s, 1.422 ± 0.068 mPa·s, 1.421 ± 0.035 mPa·s [study A] and 1.427 ± 0.018 mPa·s, 1.427 ± 0.035 mPa·s [study B]	1.298 ± 0.032 mPa·s, 1.298 ± 0.063 mPa·s [study A] and 1.304 ± 0.017 mPa·s, 1.304 ± 0.032 mPa·s [study B]	viscosity (298.15 K, 101.33 kPa): 1.564 ± 0.038 mPa·s, 1.566 ± 0.074 mPa·s [study A] and 1.568 ± 0.02 mPa·s, 1.568 ± 0.038 mPa·s [study B]
CCOc1ccccc1	1.134 ± 0.051 mPa·s [study A] and 1.16 ± 0.05 mPa·s [study B] and 1.113 ± 0.011 mPa·s [study C] and 1.122 ± 0.03 mPa·s [study D]				
CCOC(C)=O	0.4244 ± 0.0041 mPa·s, 0.4244 ± 0.0017 mPa·s, 0.4236 ± 0.011 mPa·s, 0.434 ± 0.012 mPa·s, 0.424 ± 0.005 mPa·s, 0.4315 ± 0.011 mPa·s, 0.44 ± 0.01 mPa·s, 0.4193 ± 0.0038 mPa·s, 0.429 ± 0.011 mPa·s, 0.433 ± 0.037 mPa·s, 0.434 ± 0.006 mPa·s, 0.462 ± 0.006 mPa·s, 0.4637 ± 0.028 mPa·s, 0.42 ± 0.025 mPa·s [several studies]	0.409 ± 0.009 mPa·s, 0.4066 ± 0.011 mPa·s, 0.4104 ± 0.0048 mPa·s, 0.402 ± 0.004 mPa·s, 0.4104 ± 0.011 mPa·s, 0.38 ± 0.008 mPa·s, 0.41 ± 0.035 mPa·s, 0.4213 ± 0.018 mPa·s, 0.41 ± 0.02 mPa·s, 0.4306 ± 0.0093 mPa·s [several studies]	0.41 ± 0.006 mPa·s [study A] and 0.407 ± 0.006 mPa·s [study B] and 0.437 ± 0.013 mPa·s [study C] and 0.407 ± 0.003 mPa·s [study D]	0.39 ± 0.006 mPa·s [study A] and 0.421 ± 0.012 mPa·s [study B] and 0.385 ± 0.023 mPa·s, 0.385 ± 0.044 mPa·s [study C]	viscosity (293.15 K, 101 kPa): 0.46 ± 0.02 mPa·s [study A] and 0.45 ± 0.011 mPa·s [study B] and 0.454 ± 0.01 mPa·s [study C] and 0.4545 ± 0.012 mPa·s [study D]; viscosity (303.15 K, 100 kPa): 0.39 mPa·s [study A] and 0.3802 ± 0.0029 mPa·s [study B]; viscosity (308.15 K, 100 kPa): 0.38 mPa·s [study A] and 0.37 ± 0.07 mPa·s [study B]; viscosity (308.15 K, 101 kPa): 0.39 ± 0.033 mPa·s [study A] and 0.39 ± 0.02 mPa·s [study B] and 0.4272 ± 0.026 mPa·s [study C] and 0.4095 ± 0.0089 mPa·s [study D] and 0.41 ± 0.006 mPa·s [study E] and 0.384 ± 0.01 mPa·s [study F] and 0.368 ± 0.008 mPa·s [study G]; viscosity (313.15 K, 100 kPa): 0.36 mPa·s [study A] and 0.35 ± 0.07 mPa·s [study B]; viscosity (313.15 K, 101 kPa): 0.368 ± 0.009 mPa·s, 0.36 ± 0.004 mPa·s, 0.372 ± 0.008 mPa·s, 0.3657 ± 0.0098 mPa·s, 0.3689 ± 0.0099 mPa·s, 0.35 ± 0.007 mPa·s, 0.37 ± 0.02 mPa·s, 0.3879 ± 0.0084 mPa·s, 0.362 ± 0.022 mPa·s [several studies]; viscosity (318.15 K, 100 kPa): 0.35 mPa·s [study A] and 0.34 ± 0.07 mPa·s [study B]; viscosity (318.15 K, 101 kPa): 0.35 ± 0.02 mPa·s [study A] and 0.3973 ± 0.024 mPa·s [study B] and 0.353 ± 0.01 mPa·s [study C] and 0.334 ± 0.007 mPa·s [study D]
